Test results: the supplement of paper PMC12423691
The list shows a part of the results. Binding of human transcription factors and regulators to the viral nucleoprotein by AlphaScreen, crude cell-free proteins, amounts not normalised, one pass. Fold of the Venus control; higher = more signal. No active / inactive call. Single-pass screen; sequences are the whole Swiss-Prot entries looked up by name.

B1: SMAD5, Q99717 (protein)
chain: MTSMASLFSFTSPAVKRLLGWKQGDEEEKWAEKAVDALVKKLKKKKGAMEELEKALSSPGQPSKCVTIPRSLDGRLQVSHRKGLPHVIYCRVWRWPDLQSHHELKPLDICEFPFGSKQKEVCINPYHYKRVESPVLPPVLVPRHNEFNPQHSLLVQFRNLSHNEPHMPQNATFPDSFHQPNNTPFPLSPNSPYPPSPASSTYPNSPASSGPGSPFQLPADTPPPAYMPPDDQMGQDNSQPMDTSNNMIPQIMPSISSRDVQPVAYEEPKHWCSIVYYELNNRVGEAFHASSTSVLVDGFTDPSNNKSRFCLGLLSNVNRNSTIENTRRHIGKGVHLYYVGGEVYAECLSDSSIFVQSRNCNFHHGFHPTTVCKIPSSCSLKIFNNQEFAQLLAQSVNHGFEAVYELTKMCTIRMSFVKGWGAEYHRQDVTSTPCWIEIHLHGPLQWLDKVLTQMGSPLNPISSVS
B2: RFX1, P22670 (protein)
chain: MATQAYTELQAAPPPSQPPQAPPQAQPQPPPPPPPAAPQPPQPPTAAATPQPQYVTELQSPQPQAQPPGGQKQYVTELPAVPAPSQPTGAPTPSPAPQQYIVVTVSEGAMRASETVSEASPGSTASQTGVPTQVVQQVQGTQQRLLVQTSVQAKPGHVSPLQLTNIQVPQQALPTQRLVVQSAAPGSKGGQVSLTVHGTQQVHSPPEQSPVQANSSSSKTAGAPTGTVPQQLQVHGVQQSVPVTQERSVVQATPQAPKPGPVQPLTVQGLQPVHVAQEVQQLQQVPVPHVYSSQVQYVEGGDASYTASAIRSSTYSYPETPLYTQTASTSYYEAAGTATQVSTPATSQAVASSGSMPMYVSGSQVVASSTSTGAGASNSSGGGGSGGGGGGGGGGGGGGSGSTGGGGSGAGTYVIQGGYMLGSASQSYSHTTRASPATVQWLLDNYETAEGVSLPRSTLYCHYLLHCQEQKLEPVNAASFGKLIRSVFMGLRTRRLGTRGNSKYHYYGLRIKASSPLLRLMEDQQHMAMRGQPFSQKQRLKPIQKMEGMTNGVAVGQQPSTGLSDISAQVQQYQQFLDASRSLPDFTELDLQGKVLPEGVGPGDIKAFQVLYREHCEAIVDVMVNLQFTLVETLWKTFWRYNLSQPSEAPPLAVHDEAEKRLPKAILVLLSKFEPVLQWTKHCDNVLYQGLVEILIPDVLRPIPSALTQAIRNFAKSLESWLTHAMVNIPEEMLRVKVAAAGAFAQTLRRYTSLNHLAQAARAVLQNTAQINQMLSDLNRVDFANVQEQASWVCRCEDRVVQRLEQDFKVTLQQQNSLEQWAAWLDGVVSQVLKPYQGSAGFPKAAKLFLLKWSFYSSMVIRDLTLRSAASFGSFHLIRLLYDEYMYYLIEHRVAQAKGETPIAVMGEFANLATSLNPLDPDKDEEEEEEEESEDELPQDISLAAGGESPALGPETLEPPAKLARTDARGLFVQALPSS
B3: PTGIS, Q16647 (protein)
chain: MAWAALLGLLAALLLLLLLSRRRTRRPGEPPLDLGSIPWLGYALDFGKDAASFLTRMKEKHGDIFTILVGGRYVTVLLDPHSYDAVVWEPRTRLDFHAYAIFLMERIFDVQLPHYSPSDEKARMKLTLLHRELQALTEAMYTNLHAVLLGDATEAGSGWHEMGLLDFSYSFLLRAGYLTLYGIEALPRTHESQAQDRVHSADVFHTFRQLDRLLPKLARGSLSVGDKDHMCSVKSRLWKLLSPARLARRAHRSKWLESYLLHLEEMGVSEEMQARALVLQLWATQGNMGPAAFWLLLFLLKNPEALAAVRGELESILWQAEQPVSQTTTLPQKVLDSTPVLDSVLSESLRLTAAPFITREVVVDLAMPMADGREFNLRRGDRLLLFPFLSPQRDPEIYTDPEVFKYNRFLNPDGSEKKDFYKDGKRLKNYNMPWGAGHNHCLGRSYAVNSIKQFVFLVLVHLDLELINADVEIPEFDLSRYGFGLMQPEHDVPVRYRIRP
B4: STAG2, Q8N3U4 (protein)
chain: MIAAPEIPTDFNLLQESETHFSSDTDFEDIEGKNQKQGKGKTCKKGKKGPAEKGKGGNGGGKPPSGPNRMNGHHQQNGVENMMLFEVVKMGKSAMQSVVDDWIESYKHDRDIALLDLINFFIQCSGCKGVVTAEMFRHMQNSEIIRKMTEEFDEDSGDYPLTMAGPQWKKFKSSFCEFIGVLVRQCQYSIIYDEYMMDTVISLLTGLSDSQVRAFRHTSTLAAMKLMTALVNVALNLSINMDNTQRQYEAERNKMIGKRANERLELLLQKRKELQENQDEIENMMNAIFKGVFVHRYRDAIAEIRAICIEEIGIWMKMYSDAFLNDSYLKYVGWTMHDKQGEVRLKCLTALQGLYYNKELNSKLELFTSRFKDRIVSMTLDKEYDVAVQAIKLLTLVLQSSEEVLTAEDCENVYHLVYSAHRPVAVAAGEFLYKKLFSRRDPEEDGMMKRRGRQGPNANLVKTLVFFFLESELHEHAAYLVDSMWDCATELLKDWECMNSLLLEEPLSGEEALTDRQESALIEIMLCTIRQAAECHPPVGRGTGKRVLTAKEKKTQLDDRTKITELFAVALPQLLAKYSVDAEKVTNLLQLPQYFDLEIYTTGRLEKHLDALLRQIRNIVEKHTDTDVLEACSKTYHALCNEEFTIFNRVDISRSQLIDELADKFNRLLEDFLQEGEEPDEDDAYQVLSTLKRITAFHNAHDLSKWDLFACNYKLLKTGIENGDMPEQIVIHALQCTHYVILWQLAKITESSSTKEDLLRLKKQMRVFCQICQHYLTNVNTTVKEQAFTILCDILMIFSHQIMSGGRDMLEPLVYTPDSSLQSELLSFILDHVFIEQDDDNNSADGQQEDEASKIEALHKRRNLLAAFCKLIVYTVVEMNTAADIFKQYMKYYNDYGDIIKETMSKTRQIDKIQCAKTLILSLQQLFNEMIQENGYNFDRSSSTFSGIKELARRFALTFGLDQLKTREAIAMLHKDGIEFAFKEPNPQGESHPPLNLAFLDILSEFSSKLLRQDKRTVYVYLEKFMTFQMSLRREDVWLPLMSYRNSLLAGGDDDTMSVISGISSRGSTVRSKKSKPSTGKRKVVEGMQLSLTEESSSSDSMWLSREQTLHTPVMMQTPQLTSTIMREPKRLRPEDSFMSVYPMQTEHHQTPLDYNRRGTSLMEDDEEPIVEDVMMSSEGRIEDLNEGMDFDTMDIDLPPSKNRRERTELKPDFFDPASIMDESVLGVSMF

The binders below were run against nucleoprotein N of Crimean-Congo hemorrhagic fever virus (assay: AlphaScreen luminescence signal relative to Venus negative control (fold); higher = stronger binding to CCHFV N).
Protocol: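 AlphaScreen binding of cell-free made, FLAG-GST-tagged human transcription factors and regulators (crude translation products) to biotinylated N protein; signal as fold of the FLAG-GST-Venus control. One pass.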

Binder	AlphaScreen luminescence signal
B1	1.26
B2	1.95
B3	2.05
B4	4.19
